Measured values published in the supplement of paper PMC3334620.
In all, about 33,000 sequences were measured (“E-score (-0.5 to 0.5)”: median about -0.016, highest 2% from about 0.32 on). This is one part of the list.

molecular target: T1, Stp1 (UniProt B3LFK1); experiment: PBM E-score (8-mer binding enrichment) (E-score (-0.5 to 0.5)); higher = stronger / more preferred TF binding; most listed sequences are background and not binding sites; settings: protein concentration: 200 nM; construct: GST-full length
T1 sequence: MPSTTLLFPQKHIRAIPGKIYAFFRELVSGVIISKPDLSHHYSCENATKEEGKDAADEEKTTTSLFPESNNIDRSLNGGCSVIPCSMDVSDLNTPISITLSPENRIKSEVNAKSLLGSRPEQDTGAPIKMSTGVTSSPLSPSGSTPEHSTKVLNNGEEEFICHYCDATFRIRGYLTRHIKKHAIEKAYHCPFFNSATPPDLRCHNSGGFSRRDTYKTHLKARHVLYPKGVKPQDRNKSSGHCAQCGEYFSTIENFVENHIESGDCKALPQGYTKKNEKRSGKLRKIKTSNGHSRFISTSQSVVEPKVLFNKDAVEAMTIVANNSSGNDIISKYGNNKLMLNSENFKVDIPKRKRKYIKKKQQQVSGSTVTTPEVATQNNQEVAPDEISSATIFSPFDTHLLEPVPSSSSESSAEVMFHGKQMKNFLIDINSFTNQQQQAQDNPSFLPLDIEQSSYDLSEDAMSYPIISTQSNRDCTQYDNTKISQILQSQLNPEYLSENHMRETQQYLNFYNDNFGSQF
In short: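 Universal all-10-mer Agilent arrays, fresh or stripped once, were converted to double-stranded form by primer extension. GST-tagged yeast transcription factors from PURExpress in vitro transcription/translation, full-length or DNA-binding domain only, were applied at about 100-200 nM and detected with fluorescent anti-GST. After masliner normalisation, the Universal PBM Analysis Suite scored each ungapped eight-base word together with its reverse complement by E-score.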

Sequence | PBM E-score
ACTGTTTC | -0.247
CGCGGCAG | 0.378
CCCACGTC | -0.0308
CTTGCACA | -0.0455
GACAAAGC | 0.242
AATGAGGG | -0.0629
CACACAGA | 0.0722
GTTGTCTA | 0.0131
ATCGACAG | -0.0194
GGAGTAGA | -0.0824
ACGCGTAT | 0.136
AGCCTAAG | -0.235
TATCGATA | 0.106
ACCTGGAT | -0.266
CTTGTCGA | -0.0456
ACTGTCCA | -0.0599
CCAAGACG | -0.0997
CGTCTAAG | 0.0634
AGCTGGTC | -0.166
AACCTATA | 0.158
CCCGCCCA | 0.0228
ACCAACAG | -0.0976
ACCCCGCC | 0.0989
CAGCTCAC | -0.146
CTTTGTCC | 0.0784

Sequence | PBM E-score
CAATCTGA | -0.0131
ACACCCCT | -0.252
ACCAGGAA | -0.0358
ACTAGCCT | 0.0146
AACCTGGT | -0.107
CGTCAGAA | -0.206
CTCTTTCA | -0.0859
ACCTTCGT | -0.127
AGGGTGTG | -0.225
GAGTCGGC | -0.00288
GGCAGACC | -0.139
AGTGGCGC | 0.274
GCGTACCA | -0.0547
GTTCGGAA | 0.0618
GGCTAGGA | -0.131
CCCCTTCA | -0.353
ACGTTAGT | -0.00135
ATCCAGAT | -0.0899
TCAGCACA | -0.0167
ACGGATGA | 0.00733
CCGATCGG | 0.265
AAATGCTT | 0.0515
AATCCGCC | 0.00235
CTCCATGC | -0.143
CTTGGAAC | -0.005

Sequence | PBM E-score
GGCAGCAC | -0.0121
CACAACTG | -0.176
AAATAGCC | 0.105
CAGATCCG | 0.0523
TAGGCTCA | -0.102
CAGCACCA | -0.259
GTTCTGAA | 0.115
CGGAGCGC | 0.0468
TAATAATA | 0.173
CTATACAA | -0.0692
GCGGCGCA | 0.463
ATTGGTGC | 0.181
GAACAAGA | 0.0487
GGTCCGGA | -0.11
CGATGTTC | -0.271
GCAAAGCC | -0.0595
AAAACTAG | 0.119
CCAGAACA | -0.167
ATCGTTTC | -0.0261
GAGGAGCA | -0.162
CGGGCGTA | -0.219
CGGTCTAA | -0.0537
TCTTGACA | -0.0665
ACTAAGTG | 0.0697
CCTGCACC | -0.271

Sequence | PBM E-score
GAGCATGA | -0.205
GAAGTATA | 0.169
AAAGATGG | -0.0774
GCGTTCTA | 0.0431
CACGGTAC | 0.0963
CATTATCC | 0.138
GACCATGA | -0.161
ACCAGACA | 0.0143
CTAGTCGA | -0.0849
AAGGCTGC | 0.0184
CTTTCAGA | 0.0093
TGCAGACA | -0.0811
AAAAAGTC | 0.0273
AACGACAT | 0.0854
CAACGAGC | -0.175
AATCGTGC | 0.24
GTCCAAAA | 0.172
TGAATCCA | 0.0457
CTGAACCA | -0.0476
CTAGGCGC | 0.176
TCATGGGA | -0.129
AGTGAGAC | -0.114
GAAGTAAA | 0.0309
AATGCCTA | 0.0902
ACTTACCT | -0.2

Sequence | PBM E-score
CGCCAATA | 0.0927
CGACGGCG | 0.353
CAGCTGAG | -0.105
CACTCCAG | -0.076
ACAGCAGC | 0.11
GGACGTAC | -0.0892
AGTAGTAT | 0.0866
AACTTGAT | 0.174
CGAGTCAG | -0.0885
CTATACCA | -0.00216
CCTCTTGC | -0.0401
GAGGTTCC | -0.0811
CTGGGTTA | -0.215
CTGAGGTC | -0.201
CAAGTGAC | -0.066
TGCTTGAA | 0.178
ACCCGGTA | -0.143
GAACGCCA | 0.0737
GATCCATA | 0.134
ACTGACTC | -0.0466
ACCAGTAA | 0.129
ACATTACA | -0.00148
AGCAACGC | 0.0899
AAAGGCCA | 0.0115
ATAAGAAT | 0.187

Sequence | PBM E-score
ATACGACA | 0.068
AATTAACC | -0.0507
CTGGAAGC | -0.131
CATAGAGC | -0.156
AATGCACC | -0.0414
AAAGCTAT | 0.0448
CTCACCTC | -0.0935
CTCCCCCA | -0.358
CCAGGGGC | -0.255
ATATGCGA | 0.0474
ATCTGCTG | -0.116
GCGAACAC | -0.133
CCTTGCAG | -0.0551
TAACTCAA | 0.0558
AGGCGCTC | 0.137
GATGACAA | 0.174
AAACTGTG | 0.0483
GGCCTCAC | -0.00507
CATTGTGA | -0.103
AACGACGG | 0.163
CCACATTA | -0.016
ACGGAGGA | -0.121
CGCGAGTA | 0.0727
CCTCGGGC | -0.145
ACATTACG | 0.175

Sequence | PBM E-score
ATGCTTGC | -0.24
CCCCACAA | -0.0971
CCGACAGA | 0.00648
CGCCTCTA | 0.154
CGAAGCTA | -0.118
GCAACAAA | 0.224
CTTTGGGA | -0.148
CTGTACAG | 0.0546
AGGATCCT | 0.0962
GGAATACA | -0.0242
ACCAAGAG | -0.0461
CTAACAAG | 0.0791
ACGTTCCT | 0.0743
GAGCTCAA | -0.0649
CGGCTCTC | 0.334
ATCGGGGA | -0.361
AGCGGATA | -0.031
CGGCGCCC | 0.38
AGAGTGAA | 0.0883
ACGCCCCT | -0.241
GGCTAGAA | 0.124
ACGACCAC | -0.0293
